Reference: the supplement of paper PMC8728848
Some of the results follow.

Experiments:
Assay in all cases: glycan array binding signal (z-score within array); higher = stronger binding
Settings in all cases: glycan notation: IUPAC condensed, linker removed
Fuc(a1-2)Gal = biological target: Fuc(a1-2)Gal
Method in brief: (§1)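 Glycan array binding is given as a within-array Z-score, which can be read as non-binding when negative. The arrays, 3228 of them, came from the Consortium for Functional Glycomics database and were retained only where the protein sequence was available. Z-scores were averaged across arrays of the same protein sequence at different concentrations or buffers and across linkers.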

Fuc(a1-2)Gal(b1-3)GalNAc = biological target: Fuc(a1-2)Gal(b1-3)GalNAc
Method in brief: as §1

[1] = biological target: Fuc(a1-2)Gal(b1-3)GalNAc(a1-3)[Fuc(a1-2)]Gal(b1-4)Glc
Method in brief: as §1

[2] = biological target: Fuc(a1-2)Gal(b1-3)GalNAc(a1-3)[Fuc(a1-2)]Gal(b1-4)GlcNAc
Method in brief: as §1

[3] = biological target: Fuc(a1-2)Gal(b1-3)GalNAc(b1-3)Gal
Method in brief: as §1

[4] = biological target: Fuc(a1-2)Gal(b1-3)GalNAc(b1-3)Gal(a1-4)Gal(b1-4)Glc
Method in brief: as §1

[5] = biological target: Fuc(a1-2)Gal(b1-3)GalNAc(b1-4)[Neu5Ac(a2-3)]Gal(b1-4)Glc
Method in brief: as §1

Fuc(a1-2)Gal(b1-3)GlcNAc = biological target: Fuc(a1-2)Gal(b1-3)GlcNAc
Method in brief: as §1

[6] = biological target: Fuc(a1-2)Gal(b1-3)GlcNAc(b1-2)Man(a1-3)[Fuc(a1-2)Gal(b1-3)GlcNAc(b1-2)Man(a1-6)]Man(b1-4)GlcNAc(b1-4)GlcNAc
Method in brief: as §1

[7] = biological target: Fuc(a1-2)Gal(b1-3)GlcNAc(b1-2)Man(a1-3)[Fuc(a1-2)Gal(b1-3)GlcNAc(b1-2)Man(a1-6)]Man(b1-4)GlcNAc(b1-4)[Fuc(a1-6)]GlcNAc
Method in brief: as §1

[8] = biological target: Fuc(a1-2)Gal(b1-3)GlcNAc(b1-3)Gal(b1-4)Glc
Method in brief: as §1

[9] = biological target: Fuc(a1-2)Gal(b1-3)GlcNAc(b1-3)GalNAc
Method in brief: as §1

[10] = biological target: Fuc(a1-2)Gal(b1-3)GlcNAc(b1-3)[Fuc(a1-3)[Gal(b1-4)]GlcNAc(b1-6)]Gal(b1-4)Glc
Method in brief: as §1

[11] = biological target: Fuc(a1-2)Gal(b1-3)GlcNAc(b1-3)[Gal(b1-4)GlcNAc(b1-6)]Gal(b1-4)Glc
Method in brief: as §1

[12] = biological target: Fuc(a1-2)Gal(b1-3)GlcNAc(b1-3)[Neu5Ac(a2-6)Gal(b1-4)GlcNAc(b1-6)]Gal(b1-4)Glc
Method in brief: as §1

[13] = biological target: Fuc(a1-2)Gal(b1-3)[Fuc(a1-4)]GlcNAc
Method in brief: as §1

[14] = biological target: Fuc(a1-2)Gal(b1-3)[Fuc(a1-4)]GlcNAc(b1-2)Man(a1-3)[Fuc(a1-2)Gal(b1-3)[Fuc(a1-4)]GlcNAc(b1-2)Man(a1-6)]Man(b1-4)GlcNAc(b1-4)GlcNAc
Method in brief: as §1

[15] = biological target: Fuc(a1-2)Gal(b1-3)[Fuc(a1-4)]GlcNAc(b1-3)[Fuc(a1-3)[Gal(b1-4)]GlcNAc(b1-6)]Gal(b1-4)Glc
Method in brief: as §1

[16] = biological target: Fuc(a1-2)Gal(b1-3)[Fuc(a1-4)]GlcNAc(b1-3)[Gal(b1-4)GlcNAc(b1-6)]Gal(b1-4)Glc
Method in brief: as §1

Fuc(a1-2)Gal(b1-4)Glc = biological target: Fuc(a1-2)Gal(b1-4)Glc
Method in brief: as §1

Fuc(a1-2)Gal(b1-4)Glc6S = biological target: Fuc(a1-2)Gal(b1-4)Glc6S
Method in brief: as §1

Fuc(a1-2)Gal(b1-4)GlcNAc = biological target: Fuc(a1-2)Gal(b1-4)GlcNAc
Method in brief: as §1

[17] = biological target: Fuc(a1-2)Gal(b1-4)GlcNAc(b1-2)Man(a1-3)[Fuc(a1-2)Gal(b1-4)GlcNAc(b1-2)Man(a1-6)]Man(b1-4)GlcNAc(b1-4)GlcNAc
Method in brief: as §1

[18] = biological target: Fuc(a1-2)Gal(b1-4)GlcNAc(b1-2)Man(a1-3)[Fuc(a1-2)Gal(b1-4)GlcNAc(b1-2)Man(a1-6)]Man(b1-4)GlcNAc(b1-4)[Fuc(a1-6)]GlcNAc
Method in brief: as §1

[19] = biological target: Fuc(a1-2)Gal(b1-4)GlcNAc(b1-2)[Fuc(a1-2)Gal(b1-4)GlcNAc(b1-4)]Man(a1-3)[Fuc(a1-2)Gal(b1-4)GlcNAc(b1-2)Man(a1-6)]Man(b1-4)GlcNAc(b1-4)GlcNAc
Method in brief: as §1

[20] = biological target: Fuc(a1-2)Gal(b1-4)GlcNAc(b1-3)Gal(b1-4)GlcNAc
Method in brief: as §1

[21] = biological target: Fuc(a1-2)Gal(b1-4)GlcNAc(b1-3)Gal(b1-4)GlcNAc(b1-3)Gal(b1-4)GlcNAc
Method in brief: as §1

[22] = biological target: Fuc(a1-2)Gal(b1-4)GlcNAc(b1-3)GalNAc
Method in brief: as §1

[23] = biological target: Fuc(a1-2)Gal(b1-4)GlcNAc(b1-3)[Fuc(a1-2)Gal(b1-4)GlcNAc(b1-6)]GalNAc
Method in brief: as §1

[24] = biological target: Fuc(a1-2)Gal(b1-4)GlcNAc6S
Method in brief: as §1

B1: XCL (Xerocomus chrysenteron) (protein)
chain: MSYSITLRVYQTNRDRGYFSIVEKTVWHFANGGTWSEANGAHTLTQGGSGTSGVLRFLSTKGERITVAVGVHNYKRWCDVVTGLKPDETALVINPQYYNNGGRDYVREKQLAEYSVTSAIGTKVEVVYTVAEGNNLEANVIFS
Fuc(a1-2)Gal
  glycan array binding signal (z-score): -0.307
Fuc(a1-2)Gal(b1-3)GalNAc
  glycan array binding signal (z-score): -0.206
[1]
  glycan array binding signal (z-score): -0.292
[2]
  glycan array binding signal (z-score): 0.115
[3]
  glycan array binding signal (z-score): -0.312
[4]
  glycan array binding signal (z-score): -0.322
[5]
  glycan array binding signal (z-score): -0.312
Fuc(a1-2)Gal(b1-3)GlcNAc
  glycan array binding signal (z-score): -0.302
[6]
  glycan array binding signal (z-score): -0.301
[7]
  glycan array binding signal (z-score): -0.313
[8]
  glycan array binding signal (z-score): -0.318
[9]
  glycan array binding signal (z-score): -0.28
[10]
  glycan array binding signal (z-score): -0.322
[11]
  glycan array binding signal (z-score): -0.321
[12]
  glycan array binding signal (z-score): -0.318
[13]
  glycan array binding signal (z-score): -0.296
[14]
  glycan array binding signal (z-score): -0.212
[15]
  glycan array binding signal (z-score): -0.325
[16]
  glycan array binding signal (z-score): -0.291
Fuc(a1-2)Gal(b1-4)Glc
  glycan array binding signal (z-score): -0.315
Fuc(a1-2)Gal(b1-4)Glc6S
  glycan array binding signal (z-score): -0.324
Fuc(a1-2)Gal(b1-4)GlcNAc
  glycan array binding signal (z-score): -0.324
[17]
  glycan array binding signal (z-score): -0.295
[18]
  glycan array binding signal (z-score): -0.256
[19]
  glycan array binding signal (z-score): -0.271
[20]
  glycan array binding signal (z-score): -0.317
[21]
  glycan array binding signal (z-score): -0.317
[22]
  glycan array binding signal (z-score): 0.234
[23]
  glycan array binding signal (z-score): -0.27
[24]
  glycan array binding signal (z-score): -0.327
